Experimental data published in PubChem BioAssay AID485297 (National Center for Advancing Translational Sciences (NCATS), 2010).
Among all 320,000 compounds or so, about 9,100 (2.8%) were called active. This list was built around the results that the source calls inconclusive (neither active nor inactive); the mix of calls is not that of the screen. The call rests on the fitted dose curve; in most records, active means well fitted activation curve with a large enough effect; inconclusive means small, poorly fitted or top-dose-only effect; inactive means no such curve, though single readings can be large or run the other way. No potency is given beside an inconclusive call; the fits are too rough.

Experiment: qHTS Assay for Rab9 Promoter Activators; further: nearly all actives have a fitted effect of over 60% in size; on activation, negative = inhibition: % of control where 0% means no effect
Conditions: Huh7 Rab9 promoter-luciferase reporter, luminescence, 24 h; series mostly up to 9.22 µM
In short: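 Measured in stably transfected Huh7 cells bearing a Rab9 promoter–luciferase construct: 24 h compound treatment at 37 °C, followed by luminescence detection.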
Potency means the concentration at half of the fitted maximal effect; tags describe the fitted curve by direction and shape.

Compound	Potency	activation, negative = inhibition
Cc1ccc(CN2CCN(CC(C)C)C(CCO)C2)s1 (configuration not stated)	inconclusive [activator, partial curve]	–
Cn1c(CCNC(=O)c2ccco2)nc2cc(NC(=O)c3ccccc3)ccc21	inconclusive [activator, partial curve]	–
CC(=O)Oc1ccc2c(c1)O/C(=C\c1ccncc1)C2=O	inactive	–
CCOC(CNC(=O)c1ccc2nc(N3CCC(C)CC3)sc2c1)OCC	inconclusive [activator, full curve]	–
Cc1cc(C(=O)COC(=O)c2ccco2)c(C)n1Cc1ccco1	active: 1.41 µM	–
O=C(COc1ccccc1)Nc1ccccc1Cl	inconclusive [activator, partial curve]	–
CC(=O)c1ccc(NC(=O)CCc2c(C)nn(-c3ccc(N4CCOCC4)nn3)c2C)cc1	inconclusive [activator, single point]	–
Cc1nc2sccn2c(=O)c1S(=O)(=O)NC(C)c1ccccc1 (configuration not stated)	inactive	–
CC1CN(C2CCN(C(=O)c3ccccc3Cl)CC2)CC(C)O1 (configuration not stated)	inactive	–
COC(=O)Cc1nc(NC(=O)c2cccs2)sc1C	inconclusive [activator, single point]	–
CCOC(=O)N1CCC(N(CCN(C)C)C(=S)Nc2ccccc2Cl)CC1	inactive	–
CCCc1nn(C)c(C(=O)Nc2cccc(C)c2)c1Cl	inconclusive [activator, partial curve]	–
CCOc1ccc(N(CC(=O)NCc2ccc(OC)cc2)S(C)(=O)=O)cc1	inconclusive [activator, single point]	–
CC(=O)c1cc(F)c(N2CCN(C(=O)c3ccco3)CC2)cc1C	inactive	–
Cc1nc(-c2ccc(S(=O)(=O)NCC3CCN(C(=O)OC(C)(C)C)CC3)s2)cs1	inactive	–
O=C1C(Cl)=C(N2CCOCC2)C(=O)N1CCc1ccccc1	inconclusive [activator, single point]	–
C/C(=N/NC(=O)c1ccncc1)c1ccc(NC(=O)c2ccccc2)cc1	inactive	–
CCOc1ccc(OCc2cccc(C(=O)N3CCCCCC3)c2)cc1	active: 0.282 µM	–
CC1CCCN(C(=O)CCc2nnc(-c3ccc4c(c3)OCO4)o2)C1 (configuration not stated)	inactive	–
Cc1ccc(CC(=O)c2ccc(Cl)cc2)cc1	inconclusive [activator, single point]	–
CC(C)(C)c1ccc(OCc2ccc(C(=O)N/N=C/c3ccc([N+](=O)[O-])cc3)o2)cc1	inconclusive [activator, partial curve]	–
Cc1ccc(/C=C(\NC(=O)c2ccccc2)C(=O)N2CCCC2C(=O)O)cc1 (configuration not stated)	inactive	–
CCC1CCCCN1C(=O)COc1ccc(S(=O)(=O)N2CCOCC2)cc1Cl (configuration not stated)	inactive	–
O=C(Nc1nccs1)C1CC(=O)N(c2ccc(Cl)cc2)C1 (configuration not stated)	inactive	–
COc1ccccc1Nc1nc2ccccc2[nH]1	inconclusive [activator, partial curve]	–
COc1ccc(CNC(=O)c2cc3c(C)nc4ccccc4c3o2)c(OC)c1	inactive	–

Compound	Potency	activation, negative = inhibition
Clc1ccc(-c2nc(Cc3ccccc3)no2)cc1	inconclusive [activator, single point]	–
N#Cc1c(/N=C/c2cccs2)sc2c1CCCCC2	active: 2 µM	–
Cc1ccc(-c2cnn(-c3cccc([N+](=O)[O-])c3)c2N)cc1	active: 3.16 µM	–
O=c1c(/C=N/Nc2ccccc2)c(Sc2nnnn2-c2ccccc2)nc2ccccn12	inconclusive [activator, single point]	–
O=C(CNC(=O)c1ccncc1)N/N=C/c1ccc(O)cc1O	inactive	–
CCOC(=O)c1cnc2c([N+](=O)[O-])cnn2c1C	inactive	–
COc1ccc(N2CCN(S(=O)(=O)c3ccc4oc(=O)ccc4c3)CC2)cc1	inactive	–
O=C(NCc1ccco1)c1cc(-c2ccc(Cl)cc2)on1	inconclusive [activator, partial curve]	–
CN(C)c1ccc(C(=S)NCc2ccco2)cc1	active: 0.447 µM	–
CC(C)Sc1nc(N)c2c3c(sc2n1)CN(C)CC3	inconclusive [activator, single point]	–
Cc1nn(C)cc1CNC(=O)Nc1ccc(Cl)c(Cl)c1	active: 2.51 µM	–
CC(OC(=O)/C=C/c1ccccc1)C(=O)NC1CCCCC1C (configuration not stated)	inactive	–
O=C(N=Nc1c(O)[nH]c2ccccc12)c1cccs1	active: 2.51 µM	–
Cc1csc2nc(CCNS(=O)(=O)c3cccs3)cn12	inconclusive [activator, partial curve]	–
CCCn1nnc(NC(=O)c2ccc(OC)cc2)n1	inconclusive [activator, partial curve]	–
COC(=O)c1ccc(/C(O)=C(\C#N)c2nc3ccccc3s2)cc1	active: 3.16 µM	–
CCOC(=O)/C(=N/Nc1ccc(C)cc1)S(=O)(=O)c1ccc(Cl)cc1	inconclusive [activator, single point]	–
COCCCn1cnc2c(c1=O)c1nc3ccccc3nc1n2CCc1ccccc1	inactive	–
Cc1cc(C)cc(OCC(=O)N2CCCCCC2)c1	–	inactive: 0.525% [at 1.84 µM]
Cc1nnc(C)c2c(C)n(-c3ccccc3N)c(C)c12	inactive	–
COc1ccc(-c2nc(-c3ccccc3OC)no2)cc1OC	inconclusive [activator, single point]	–
Cc1ccccc1C(=O)Nc1nc(-c2cccnc2)cs1	inactive	–
CCCCn1c(N)c(N(CCOC)C(=O)CCCc2nc3ccccc3c(=O)[nH]2)c(=O)[nH]c1=O	inconclusive [activator, single point]	–
CCOc1ccc2nc(/N=C/c3c(C)[nH]n(-c4ccccc4)c3=O)sc2c1	inconclusive [activator, partial curve]	–
Cc1nc(S/C(=C/c2ccc(OCc3ccc(C(=O)O)cc3)cc2)C(=O)O)n[nH]1	inactive	–
C=CCc1c(C)nc(SC)nc1Nc1ccc(C(C)=O)cc1	inconclusive [activator, partial curve]	–
